Test results reported in the BET-seq Pho4 binding data (Le et al. 2018).
The other results are listed elsewhere or left out. The energies were worked out here from pooled read counts, against the library average; single values are noisy.

biological target: T1, Pho4 (S. cerevisiae) (UniProt P07270); experiment: relative binding free energy (BET-seq); higher = weaker binding; conditions: reference: library average
T1 sequence: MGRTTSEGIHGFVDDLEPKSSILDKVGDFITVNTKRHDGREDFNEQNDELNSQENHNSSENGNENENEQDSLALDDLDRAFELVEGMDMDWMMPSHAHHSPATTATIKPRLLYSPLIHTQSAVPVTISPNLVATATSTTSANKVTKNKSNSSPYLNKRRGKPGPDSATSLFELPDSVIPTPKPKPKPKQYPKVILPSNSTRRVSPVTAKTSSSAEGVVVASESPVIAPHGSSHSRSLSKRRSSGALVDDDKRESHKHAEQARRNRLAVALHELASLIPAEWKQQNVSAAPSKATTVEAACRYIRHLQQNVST

Sequence	relative binding free energy [kcal/mol]
TTTTACACGTGTGTGA	0.13
ATTGACACGTGTATAG	0.06
TCTTTCACGTGTGGTC	0.34
GTATTCACGTGGCTAT	0.35
AAATTCACGTGTTGTG	0.1
AGTCTCACGTGAGGAG	0.3
GATGTCACGTGGGTCG	0.04
GTTGACACGTGTTTGT	0.1
ATTAACACGTGTGTTC	0
ATGGCCACGTGGTTGG	0
GATGTCACGTGTAAGA	0.35
AGGGACACGTGCGAGG	0
CAGGGCACGTGTGGGA	-0.14
ATACTCACGTGTGTGT	0.06
AAGAGCACGTGTTGGG	-0.15
GTAAGCACGTGATGTT	0.21
ATAGGCACGTGAGGGC	0.11
TAGGTCACGTGAAGTA	0.37
GGAGTCACGTGCTGGA	0.24
ATATGCACGTGGCGTA	-0.27
GTGGTCACGTGTTGTA	0.02
ATGATCACGTGGGATT	0.12
TTTTTCACGTGCGTAA	0.19

Sequence	relative binding free energy [kcal/mol]
GGTCACACGTGGATTT	0.16
GTATGCACGTGTTGGG	0.06
TGTCGCACGTGGGGCA	-0.2
CTGTGCACGTGCAGTG	-0.14
TTTAACACGTGTTTCG	-0.07
TTTTGCACGTGGGAAG	-0.1
ATGTTCACGTGGTTAA	0.2
TGTCACACGTGTGTCG	0.29
ATTTACACGTGCGGTC	0.26
AAGGCCACGTGTTGAG	0.06
GGAGGCACGTGGTGAG	-0.1
ACATACACGTGGGTGG	0
CAGTGCACGTGGTTGT	-0.05
CATGTCACGTGGGGAT	-0.13
CGGCGCACGTGGGGTG	-0.25
TGTCCCACGTGTGAGT	0.17
TGTTGCACGTGTATAG	-0.02
ATTGTCACGTGTTTCA	-0.07
GGGTTCACGTGGTATA	0.28
AGTGACACGTGGGGAA	-0.08
TTATGCACGTGCTGAG	-0.06
AGTGCCACGTGAGGGA	0.13
ATTGTCACGTGCGGTG	0.04

Sequence	relative binding free energy [kcal/mol]
TTTGCCACGTGAGGAT	0.08
AGCATCACGTGGGCGG	-0.03
TTTGCCACGTGGGCGG	-0.3
GATGACACGTGTTATA	0.14
ATTTTCACGTGTTGTA	0.3
AGGCACACGTGTAGGG	0.07
ATGGGCACGTGGTTCT	-0.16
AGAGTCACGTGAGATA	0.31
GGGCTCACGTGGGAGT	0.14
CGGAGCACGTGATTGG	0
AGCGACACGTGATGGT	0.15
AGGCGCACGTGGGGGT	-0.18
GTATTCACGTGGTGGA	0.21
TGCACCACGTGGGGTA	-0.2
CGGTGCACGTGGAGGC	-0.12
CGACGCACGTGGGTGA	-0.08
AGCATCACGTGGTAGG	0.03
AGTGTCACGTGCGCAG	-0.2
GGAGACACGTGTATGC	0.28
CGTGTCACGTGGCGTT	-0.07
TTGTTCACGTGAATAG	0.5
TTGGACACGTGTGCAT	0.15
GTAAGCACGTGTAGGG	-0.06

Sequence	relative binding free energy [kcal/mol]
GAATTCACGTGTTTAA	0.39
TGTGACACGTGTTGGC	0.05
GTGTGCACGTGTGGGA	0.08
GTCGTCACGTGGTCAA	0.19
ATTCACACGTGATTTT	0.29
TTCTTCACGTGGATTT	0.32
CGTTTCACGTGTTGTC	0.2
TGGTACACGTGTGTTT	0.22
TGAGCCACGTGTAGTT	-0.07
AGTATCACGTGAAGTA	0.49
GGGTGCACGTGTTAGG	0.07
GGATTCACGTGTGTCT	0.35
CTGGACACGTGTGCGT	-0.1
GTGTACACGTGTGGGT	0.1
CGGAGCACGTGTAAGG	0.1
GCAGGCACGTGAGGTG	0.12
AATTGCACGTGATAGT	0.1
AGTGTCACGTGGGGGC	-0.16
GTGTGCACGTGACGTA	0.04
TAAGTCACGTGAGAGA	0.19
ATTAGCACGTGGGCGT	-0.16
TTTCGCACGTGAATGT	0.24
GTGGGCACGTGAAAGC	0.25

Sequence	relative binding free energy [kcal/mol]
TGATACACGTGGGTAA	-0.17
ATGTACACGTGGGTGT	-0.07
GTTTTCACGTGTCTGT	0.38
TGTGCCACGTGGTTTC	-0.08
CGTATCACGTGGTGGC	0.1
GGGAGCACGTGTCGGA	-0.1
TTTCGCACGTGGGAAT	-0.07
GTAAGCACGTGGCGTT	-0.33
TGCTGCACGTGATTTT	-0.02
AAGAACACGTGGCGTT	0.14
ACTGTCACGTGGGGGG	-0.07
GGTCTCACGTGATAGA	0.46
TAGTTCACGTGATGTC	0.37
GCAGGCACGTGGGGGC	-0.26
GTATGCACGTGCAGGA	-0.11
TAATGCACGTGACGTG	0.15
GGTCGCACGTGTAGGG	-0.09
AGAAGCACGTGGTGGT	-0.11
GGTAACACGTGGTTCG	-0.03
AAGTTCACGTGGGGTG	0.17
TACGTCACGTGGGTCG	-0.07
AATGGCACGTGAAATG	0.14
TATTGCACGTGTCTTT	-0.03
